# According to PubChem BioAssay AID1030 (National Center for Advancing Translational Sciences (NCATS), 2008):
# Out of some 220,000 compounds screened, about 16,000 (7.3%) were called active. Inconclusive means that the source gave no clear call. Such entries were picked first, then a sample of the others. The call rests on the fitted dose curve; in most records, active means well fitted inhibition curve with a large enough effect (not every such curve was filed as active); inconclusive means small, poorly fitted or top-dose-only effect, or another doubt; inactive means no such curve, though single readings can be large or run the other way. No potency is given beside an inconclusive call; the fits are too rough.
# Molecular target: Aldehyde dehydrogenase 1A1 (Homo sapiens) (UniProt P00352)
# Experiment: qHTS Assay for Inhibitors of Aldehyde Dehydrogenase 1 (ALDH1A1)
# Settings: Purified ALDH1A1, NADH fluorescence, propionaldehyde substrate; series mostly up to 75.3 µM
# Potency means the concentration at half of the fitted maximal effect; tags describe the fitted curve by direction and shape.
# Sequence of UniProt P00352 (P00352 whole entry, looked up): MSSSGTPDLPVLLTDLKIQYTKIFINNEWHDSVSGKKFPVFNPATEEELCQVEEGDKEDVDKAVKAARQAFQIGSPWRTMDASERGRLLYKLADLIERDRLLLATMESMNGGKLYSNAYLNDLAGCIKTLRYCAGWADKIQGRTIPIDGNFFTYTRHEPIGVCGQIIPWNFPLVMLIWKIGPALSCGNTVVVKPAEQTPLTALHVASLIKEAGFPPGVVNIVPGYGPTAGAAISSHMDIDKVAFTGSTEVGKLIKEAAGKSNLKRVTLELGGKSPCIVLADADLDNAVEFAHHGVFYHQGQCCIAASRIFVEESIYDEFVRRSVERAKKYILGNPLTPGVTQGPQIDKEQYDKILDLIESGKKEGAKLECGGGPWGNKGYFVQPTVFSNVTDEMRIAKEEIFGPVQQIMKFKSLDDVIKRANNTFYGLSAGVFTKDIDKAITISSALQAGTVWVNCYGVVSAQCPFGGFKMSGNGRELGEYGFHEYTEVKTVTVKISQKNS
row,Compound,Potency
1,CCn1cc(C(=O)O)c(=O)c2cc(F)c(N3CCN(S(=O)(=O)c4ccc(NC(C)=O)cc4)CC3)cc21,"inconclusive [inhibitor, single point]"
2,CN(C)c1ccc(/C=C(\C#N)c2ccccn2)cc1,active: 9.46 µM
3,O=C(CCN1CCCC1Cc1ccccc1)c1ccc2c(c1)OCCO2 (stereo unspecified),active: 0.0355 µM
4,Cc1cc(O)c(NC(=O)c2ccco2)cc1C,inactive
5,Cc1ccc(S(=O)(=O)N(C)C)cc1NC(=O)COC(=O)COc1ccccc1[N+](=O)[O-],inactive
6,Cc1csc2nc(CSc3nc4ccccc4o3)cn12,"inconclusive [inhibitor, single point]"
7,COc1ccc(N2CCN(C(=O)COc3ccc4c(C)cc(=O)oc4c3)CC2)cc1,"inconclusive [inhibitor, partial curve]"
8,CCOC(=O)c1sc(/N=C/N(C)C)c(C(=O)OCC)c1C,inactive
9,CCCn1c(SCC(=O)NC2CCCCC2C)n[nH]c1=O (stereo unspecified),inactive
10,CCC1=C2CC[C@H]3C(=O)N(CC(=O)OC)C(=O)[C@H]3[C@H]2[C@@]2(C)C(=O)N(Cc3ccccc3)C(=O)N2C1=O,inactive
11,CCN(CC)S(=O)(=O)c1cc(NC(=O)CSc2nccn2C)ccc1C,inactive
12,O=C(CN1CCOCC1)NNC(=S)Nc1ccccc1,inactive
13,Cc1ccccc1CC1(CO)CCCN(Cc2ccc3c(c2)OCCO3)C1 (stereo unspecified),inactive
14,O=C(CSc1nnc2ncccn12)N1CCCCCC1,inactive
15,CCOc1ccc(C(=O)NCCN(C)C)cc1,"inconclusive [inhibitor, single point]"
16,CCC(=O)N(Cc1cc2ccc(C)cc2n2nnnc12)C1CCCCC1,active: 5.01 µM
17,O=S(=O)(Nc1cc(C(F)(F)F)ccc1N1CCOCC1)c1ccc2ccccc2c1,"inconclusive [inhibitor, partial curve]"
18,CN1CCc2c(OCC(=O)N3N=C(c4cccs4)CC3c3ccc(F)cc3)cccc2C1=O (stereo unspecified),"inconclusive [inhibitor, partial curve]"
19,Cc1onc(-c2ccccc2)c1C(=O)OCC(=O)NCc1ccc(F)cc1,inactive
20,CC(C)C(NC(=O)c1ccc(C(C)(C)C)cc1)C(=O)NCCc1ccccn1 (stereo unspecified),"inconclusive [inhibitor, single point]"
21,O=C(NCCCn1ccnc1)c1cc2c(ccc3ccccc32)o1,"inconclusive [inhibitor, partial curve]"
22,Cc1[nH]c2ccccc2c1C(=O)CSc1nc2ccccc2c(=O)n1-c1ccccc1F,active: 0.562 µM
23,COCCn1c(SCC#N)nnc1-c1ccc([N+](=O)[O-])cc1,inactive
24,Cc1ccc(C)c(N/N=C2\CCCNC2=O)c1,inactive
25,CSCCC1NC(=O)N(C(C)C(=O)Nc2cc(Cl)cc(Cl)c2)C1=O (stereo unspecified),inactive
26,CC1(C)Oc2ccc(C(=O)NC3CCCC3)cc2N(CC(=O)NC2CCCCC2)C1=O,"inconclusive [inhibitor, single point]"

row,Compound,Potency
1,C=CCOc1ccc(/C(O)=C2\C(=O)C(=O)N(CCCOC)C2c2ccncc2)cc1 (stereo unspecified),"inconclusive [inhibitor, single point]"
2,CC(C)(C)OC(=O)N1CC=C2C(C#N)=C(N)C(C#N)(C#N)C(c3cccs3)C2C1 (stereo unspecified),"inconclusive [inhibitor, partial curve]"
3,CC(C)OC(=O)CN1C(=O)S/C(=C/c2ccc(N3CCCCC3)o2)C1=O,active: 7.08 µM
4,COc1ccc(-c2c(C#N)c(N)nc3c2c(=O)n(C)c(=O)n3C)cc1,"inconclusive [inhibitor, single point]"
5,Cc1nc(-c2cccc(Br)c2)ccc1C(=O)O,inactive
6,COC(=O)c1[nH]c2ccccc2c1NC(=O)Oc1ccccc1,"inconclusive [inhibitor, single point]"
7,Cc1ccccc1-c1nc(CS(=O)(=O)CC(=O)N2CCc3ccccc3C2)c(C)o1,"inconclusive [inhibitor, single point]"
8,O=c1c2ccccc2nnn1CSc1ccc2c(c1)OCCO2,inactive
9,Cc1ccc(S(=O)(=O)N2CCOCC2)cc1C(=O)OCC(=O)N1CCc2ccccc2C1,"inconclusive [inhibitor, single point]"
10,Cc1cccc2cc(CN(CC3CCCO3)C(=O)c3ccncc3)c(=O)[nH]c12 (stereo unspecified),"inconclusive [inhibitor, single point]"
11,Cn1cccc1C(=O)OCC(=O)N1c2ccccc2NC(=O)C1(C)C,inactive
12,COc1ccc(Cc2nnc(SCC(=O)N3CCc4ccccc4C3)o2)cc1,active: 12.6 µM
13,CSc1nc(N2CCOCC2)c2c(c1C#N)CC(C)(C)OC2,inactive
14,CN(C)c1ccc(NC(=O)CSCc2nc3c(nnn3Cc3ccc(F)cc3)c(=O)[nH]2)cc1,active: 10 µM
15,CC(C)=CCN1CCN(Cc2cccn2-c2ncccn2)CC1CCO (stereo unspecified),inactive
16,O=C1CC(NN2CCCCC2)C(=O)N1c1ccccc1 (stereo unspecified),"inconclusive [inhibitor, single point]"
17,c1c2c(cc3sc(N4CCCCC4)nc13)OCO2,active: 22.4 µM
18,O=C(CCc1ccc(Oc2cc([N+](=O)[O-])cc([N+](=O)[O-])c2)cc1)Nc1cccc(Cl)c1,"inconclusive [inhibitor, single point]"
19,c1cnn(-c2nc(N3CCOCC3)nc(N3CCOCC3)n2)c1,inactive
20,O=C(Nc1ccccc1C(=O)O)c1cc(S(=O)(=O)N2CCCCC2)cs1,"inconclusive [inhibitor, single point]"
21,O=C(Nc1ccc2c(c1)ncn2C1CCCCC1)c1ccco1,"inconclusive [inhibitor, single point]"
22,CCOC(=O)CNC(=O)CNC(=O)c1ccc(OC)cc1,inactive
23,CN(c1ccccc1)S(=O)(=O)c1ccc(NC(=S)NC(=O)C2CC2)cc1,"inconclusive [inhibitor, single point]"
24,O=C(/C=C\c1cn(-c2ccccc2)nc1-c1ccccc1)Nc1nccs1,"inconclusive [inhibitor, single point]"
25,O=C(O)CNC(=S)N(Cc1cccs1)C1CCCCC1,inactive
26,Cc1nonc1NCn1nnc2ccccc21,"inconclusive [inhibitor, single point]"

row,Compound,Potency
1,O=C(O)/C=C/C(=O)Nc1ccc(SC(F)(F)C(F)(F)C(F)(F)F)cc1,active: 28.2 µM
2,Cc1ccccc1OCC(=O)N(CC(C)C)c1c(N)n(CC(C)C)c(=O)[nH]c1=O,inactive
3,COc1ccc(NC(=O)CSc2c(C)n[nH]c2C)cc1,active: 15.8 µM
4,COc1cc(C2C3=C(CC(C)(C)CC3=O)NC3=C2C(=O)c2ccccc23)ccc1O (stereo unspecified),"inconclusive [inhibitor, single point]"
5,COc1ccc(-c2[nH]ncc2-c2cnn(-c3ccccc3)c2)c(O)c1,"inconclusive [inhibitor, single point]"
6,O=C(COC(=O)/C=C/c1nc2ccccc2s1)Nc1cccc2ccccc12,"inconclusive [inhibitor, single point]"
7,COc1ccc(C(=O)/C=C/Nc2ccc(C)cn2)cc1OC,"inconclusive [inhibitor, single point]"
8,CCN(CC)c1ccc(S(=O)(=O)N2CCOCC2)cc1NC(=O)CN1CCc2ccccc2C1,"inconclusive [inhibitor, partial curve]"
9,O=C(CN1CCCc2ccccc21)Nc1ccccc1[N+](=O)[O-],inactive
10,COC(=O)c1[nH]c(C)c(/C(O)=C2\C(=O)C(=O)N(CCCN3CCOCC3)C2c2ccccn2)c1C (stereo unspecified),active: 10 µM
11,O=C(N[C@@H](Cc1ccccc1)C(=O)NC1CCCCCC1)c1ccco1,"inconclusive [inhibitor, partial curve]"
12,O=c1[nH]c(=O)n(Cc2ccccc2)c2nc(-c3ccco3)cc(C(F)(F)F)c12,"inconclusive [inhibitor, partial curve]"
13,O=C(CSc1nnc(-c2ccco2)c(-c2ccco2)n1)Nc1ccccc1,active: 2 µM
14,Cc1nn(C)c(C)c1S(=O)(=O)N(CC(=O)N1CCc2ccccc21)c1ccc(C(C)C)cc1,inactive
15,O=C1CCC=C1C(O)c1ccc(Cl)cc1 (stereo unspecified),inactive
16,COc1ccccc1CCn1c(=O)c(-c2cc(F)cc(F)c2)nc2cncnc21,"inconclusive [inhibitor, single point]"
17,CC1Cc2ccccc2N1C(=O)CSc1nnc(-c2ccc(S(=O)(=O)N3CCCC3)cc2)n1C (stereo unspecified),"inconclusive [inhibitor, single point]"
18,O=C(CNC(=O)C1CCCCC1)NCCCO,"inconclusive [inhibitor, single point]"
19,O=C(c1ccc(Cl)cc1)C1CCCN(C(=O)/C=C/c2ccccn2)C1 (stereo unspecified),"inconclusive [inhibitor, partial curve]"
20,CC1Cc2ccccc2N1S(=O)(=O)c1cnc(Cl)c(Cl)c1 (stereo unspecified),"inconclusive [inhibitor, full curve, poor fit]"
21,C/C(CC(=O)NC(C)(C)C)=N\NC(=O)c1ccccc1N,"inconclusive [inhibitor, partial curve]"
22,CCOC(=O)c1c(CSc2ccc(C)cc2)oc2ccc(O)cc12,inactive
23,COc1cccc(NC(=O)C(OC(=O)/C=C/c2ccc3c(c2)OCO3)c2ccccc2)c1 (stereo unspecified),"inconclusive [inhibitor, partial curve]"
24,N#CC1=C(N)Oc2ccc3ccccc3c2C1c1cccnc1 (stereo unspecified),"inconclusive [inhibitor, single point]"
